Experimental data: PMC4336329 (PLoS ONE, 2015)
In all, about 310,000 compounds went through this assay and about 14,000 (4.5%) showed an effect of 50% or more. The effect is printed as a negative number. The list shows a part of the results.

Biological target: human ether-à-go-go-related gene (hERG) potassium channel (human, UniProt Q12809)
Experiment: primary screen, population patch clamp on CHO cells stably expressing hERG
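Also: peak tail current of the secondary pulse compared with the same well before compound.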

Chain of human ether-à-go-go-related gene (hERG) potassium channel (Q12809 whole entry, looked up): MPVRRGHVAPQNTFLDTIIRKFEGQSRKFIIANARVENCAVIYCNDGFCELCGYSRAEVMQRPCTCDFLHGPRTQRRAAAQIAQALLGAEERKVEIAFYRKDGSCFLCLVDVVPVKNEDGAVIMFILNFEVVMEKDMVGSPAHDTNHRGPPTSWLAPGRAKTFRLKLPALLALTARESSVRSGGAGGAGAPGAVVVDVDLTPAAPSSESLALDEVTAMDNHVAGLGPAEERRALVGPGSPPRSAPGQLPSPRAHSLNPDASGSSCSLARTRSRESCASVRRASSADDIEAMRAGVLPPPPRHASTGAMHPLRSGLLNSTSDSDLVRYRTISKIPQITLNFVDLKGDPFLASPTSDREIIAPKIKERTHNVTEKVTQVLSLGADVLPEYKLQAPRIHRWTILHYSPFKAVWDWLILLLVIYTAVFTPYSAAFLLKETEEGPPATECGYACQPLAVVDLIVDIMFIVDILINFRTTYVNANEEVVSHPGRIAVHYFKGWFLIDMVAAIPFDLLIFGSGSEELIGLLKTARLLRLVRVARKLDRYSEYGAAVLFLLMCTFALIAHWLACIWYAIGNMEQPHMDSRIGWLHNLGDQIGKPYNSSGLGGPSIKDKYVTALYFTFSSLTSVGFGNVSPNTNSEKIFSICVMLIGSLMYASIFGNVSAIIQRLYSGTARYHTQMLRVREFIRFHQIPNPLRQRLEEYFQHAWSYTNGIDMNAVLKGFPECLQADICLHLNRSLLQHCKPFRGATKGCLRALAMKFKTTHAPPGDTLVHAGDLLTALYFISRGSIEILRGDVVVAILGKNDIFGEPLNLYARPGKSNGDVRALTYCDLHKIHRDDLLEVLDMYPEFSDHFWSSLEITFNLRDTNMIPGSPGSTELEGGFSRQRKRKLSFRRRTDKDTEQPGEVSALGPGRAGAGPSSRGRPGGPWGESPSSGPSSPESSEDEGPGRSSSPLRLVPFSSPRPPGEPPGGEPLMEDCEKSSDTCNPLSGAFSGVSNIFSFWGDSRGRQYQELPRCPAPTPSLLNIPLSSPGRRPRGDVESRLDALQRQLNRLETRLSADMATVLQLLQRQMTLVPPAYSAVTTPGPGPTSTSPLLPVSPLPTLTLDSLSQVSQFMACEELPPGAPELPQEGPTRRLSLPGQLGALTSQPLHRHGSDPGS

| Structure (SMILES) | hERG current change (%, negative = inhibition) at 10uM [%] |
| --- | --- |
| CCn1c(C)c(C(C)=O)cc(C#N)c1=O | -4.92 |
| COc1ccc(NC(=O)CSc2nc(C)cs2)cc1OC | -1.36 |
| CC(C)Oc1cccc(C(=O)Nc2ccccc2N2CCOCC2)c1 | -28.3 |
| CCCc1nn2c(=O)cc(CSCC(=O)Nc3nnc(CC)s3)nc2s1 | 15.5 |
| Cc1cc(=O)cc(C)n1-c1ccccc1N1CCOCC1 | 16.7 |
| Cc1sc2nc(CSCC(=O)Nc3ccc(C(=O)N(C)C)cc3)[nH]c(=O)c2c1C | 17.2 |
| O=c1oc(-c2ccco2)nc2sc3c(c12)CCCC3 | 17.3 |
| COc1ccc(CCNC(=O)CCCn2c(=O)c3cccn3c3cccnc32)c(OC)c1 | 1.9 |
| CC(C)CNS(=O)(=O)c1ccc(S(=O)(=O)N2CCN(C3CCCC3)CC2)cc1 | 3.47 |
| CCCNC(=O)C1CCN(S(=O)(=O)c2ccc3nc4c(c(C(=O)O)c3c2)CCCCC4)CC1 | 16.2 |
| Cc1ccccc1-n1c(C)nnc1SCC(=O)N1CC(=O)Nc2ccccc21 | 0.973 |
| COc1ccc(C(=O)OC(C)C(=O)NC(C)CCc2ccccc2)cc1[N+](=O)[O-] (centres unmarked) | -7.64 |
| CN(C)CCCNc1oc(/C=C/c2cccs2)nc1S(=O)(=O)c1ccccc1 | -39.5 |
| CCOc1ccc(OCC)c(NC(=O)CCS(=O)(=O)c2ccc(C)cc2)c1 | -10.7 |
| O=C(NC(=S)Nc1cccnc1Cl)c1ccc(Cl)cc1 | 15.5 |
| Cc1cccc(Oc2nc(CN3CCOCC3)nc3sc4c(c23)CCCC4)c1 | -29.7 |
| CC(=O)Nc1ccc(-c2cc(C(=O)O)c3ccc(C)cc3n2)cc1 | 8.4 |
| O=C(O)c1ccccc1NC(=O)N1CCOCC1 | 8.57 |
| CN1/C(=C\C(=O)COC(=O)c2ccco2)C(C)(C)c2ccccc21 | -3.6 |
| CCC(CC)NC(=O)/C=C/c1cccc([N+](=O)[O-])c1 | -8.05 |
| Cc1cccc([N+](=O)[O-])c1NC(=O)COC(=O)C1CCCO1 (centres unmarked) | 20.1 |
| O=C(NC(=O)c1ccccc1)OCCN1C(=O)c2ccccc2C1=O | -24 |
| CCN1/C(=C/c2ccc3ccc(C)cc3[n+]2CC)Sc2ccccc21.[I-] | -81.1 |

| Structure (SMILES) | hERG current change (%, negative = inhibition) at 10uM [%] |
| --- | --- |
| COc1cc(OC)nc(Oc2cc(C=O)ccc2OC)n1 | -3.55 |
| Cc1ccccc1Nc1cc(C)c2c(O)cccc2n1 | -20.2 |
| O=C(Cn1nnc(-c2cccc(C(F)(F)F)c2)n1)N1CCCCCC1 | -15.7 |
| O=C(Nc1ccccn1)c1ccc(=O)[nH]n1 | -0.517 |
| CC1CC2(O)c3nonc3CCC2N1O (centres unmarked) | -14.8 |
| CSc1ccccc1-c1nnc(NC(=O)Cc2ccccc2)o1 | 11.5 |
| Cc1ccc(S(C)(=O)=O)cc1S(=O)(=O)Nc1cccc(Cl)c1 | -5.71 |
| COc1cc(S(=O)(=O)Nc2cccc(C)c2)ccc1N=Cc1c(C)[nH]n(-c2ccccc2)c1=O | 9.66 |
| COc1ccc(-c2nn(-c3ccccc3)cc2/C=C/C(=O)N2CCOCC2)cc1OC | -20.4 |
| CCOc1ccc(-c2nc(CS(=O)(=O)CC(=O)NCc3ccc(F)cc3)c(C)o2)cc1 | 17.8 |
| O=C(Nc1ccc(N2CCCCC2)cc1)c1ccc([N+](=O)[O-])o1 | -10.1 |
| CCn1c(C)c(C)c2cc(C(=O)N3CCN(c4ccccc4)CC3)ccc21 | -3.23 |
| COc1ccc(N2CCN(c3ccc(NC(=O)c4ccc5c(c4)OCO5)cc3C#N)CC2)cc1 | 6.54 |
| O=C(c1cccc([N+](=O)[O-])c1)N1CCN(c2ncccn2)CC1 | -8.55 |
| COC(=O)c1sc(NC(=O)COc2ccccc2)nc1C | 0.918 |
| CCOc1ccc(S(=O)(=O)Nc2ccc(C(=O)NCc3ccncc3)cc2)cc1 | -22.2 |
| CCNS(=O)(=O)c1ccc(NS(=O)(=O)c2cc(C)ccc2C)cc1 | -1.2 |
| Cc1ccc(F)c(CNC(=O)C2CCC(=O)N(Cc3ccccn3)C2)c1F (centres unmarked) | 20 |
| O=C(NCc1ccccn1)c1cccs1 | 12 |
| O=C(NCc1ccccc1)Nc1cccn(Cc2ccccc2F)c1=O | 6.42 |
| C=CCOc1cccc(/C=N/NC(=O)CN2CCCCC2)c1 | -38.4 |
| COc1cc(/C=C2/C(=N)N3OC(C)=CC3=NC2=O)ccc1OC(=O)c1ccco1 | 29.8 |
| O=C(N1CCOCCOc2ccccc2OCCOCC1)C(F)(F)F | 6.2 |

| Structure (SMILES) | hERG current change (%, negative = inhibition) at 10uM [%] |
| --- | --- |
| CCOC(=O)C1=C(COc2ccccc2)NC(=O)NC1c1cccc([N+](=O)[O-])c1 (centres unmarked) | 4.42 |
| C/C(N)=C(/C#N)C(=O)CSc1ccc2c(c1)OCCO2 | 5.19 |
| COc1ccc(-c2cc(C(F)(F)F)nc(S(C)(=O)=O)n2)cc1 | -27.1 |
| O=C(Nc1ccccc1)c1ccccc1NC(=O)C(F)(F)F | 7.06 |
| CCCN1CCN(CC(=O)Nc2nc3ccccc3s2)CC1 | -49.9 |
| CCOc1ccc2c(c1)C(=O)C(=O)N2CC1COc2ccccc2O1 (centres unmarked) | 20.4 |
| CC(=O)Nc1ccc(SCC(=O)N(C)C2CCS(=O)(=O)C2)cc1 (centres unmarked) | 8.48 |
| CCN(CC)S(=O)(=O)c1cccc(-c2nn(-c3ccccc3)cc2/C=C(\C#N)C(=O)NCc2ccco2)c1 | 4.77 |
| COC(=O)/C=C1/S/C(=N/N=C/c2ccc(N(C)C)cc2)NC1=O | 13.1 |
| O=C(c1cccc(F)c1)N1CCN(S(=O)(=O)Cc2ccccc2)CC1 | 6.14 |
| Cc1cc(=O)n2c3ccccc3n(CC(O)CN3CCN(CCO)CC3)c2c1C#N (centres unmarked) | -16 |
| Cc1ccccc1S(=O)(=O)Cc1ccc(C(=O)NC2CCC(C)CC2)o1 (centres unmarked) | 8.03 |
| Cc1ccc(C(=O)NNC(=O)CCN2C(=O)C3CCCCC3C2=O)cc1 (centres unmarked) | -5.88 |
| CN(CCOc1ccccc1)CC(=O)Nc1cccc(Br)c1.O=C(O)C(=O)O | -3.94 |
| COc1ccc2c(C(=O)CN3CC(C)OC(C)C3)c[nH]c2c1 (centres unmarked) | 15.3 |
| Cl.NC(=NCCc1ccccc1)NC(=O)c1cc(Cl)ccc1O | -2.39 |
| Cc1ccc(/C=N/c2sc3c(c2C(N)=O)CCCC3)o1 | 23.3 |
| CCc1ccc2nc(NC(=O)c3ccc(N4C(=O)CCC4=O)cc3)sc2c1 | 17.2 |
| Cn1c(-c2ccc(=O)[nH]c2)nc2ccccc21 | -0.793 |
| COc1ccc(NC2CCCN(C(=O)c3ccc(OC)o3)C2)cc1 (centres unmarked) | 7.3 |
| O=C(COc1ccccc1Cl)NCCNC(=O)c1ccccn1 | 22.6 |
| C/C=C/c1ccc(OCCOc2ccc(C=O)cc2)c(OC)c1 | 18.8 |
| O=[N+]([O-])c1ccc(COn2nnc3ccccc32)cc1 | 0.91 |

| Structure (SMILES) | hERG current change (%, negative = inhibition) at 10uM [%] |
| --- | --- |
| CC(=O)N1C(C(=O)O)CSC1c1ccc(C)cc1 (centres unmarked) | 9.78 |
| O=C1CC2(CCN(C(=O)c3ccc(Cl)cc3)CC2)Oc2ccccc21 | -87.8 |
| O=C(C1CC(Cl)CN1S(=O)(=O)c1ccc(Cl)cc1)N1CCOCC1 (centres unmarked) | 13.4 |
| CCOc1ccc(CNC(=O)c2ccc(Sc3ccc(C)cc3)c(NC(C)=O)c2)cc1 | -4.85 |
| C=CCn1c(C)cc(C(=O)CN2C(=O)c3ccccc3S2(=O)=O)c1C | -3.98 |
| Cc1ccc(CNC(C)c2ccccc2)cc1.Cl (centres unmarked) | -8.59 |
| COC(=O)CSc1ccc(S(=O)(=O)N2CCC(C)CC2)cc1[N+](=O)[O-] | -1.16 |
| COc1cccc(/C=C2\SC(=O)NC2=O)c1OCc1ccc(C(=O)O)cc1 | 9.69 |
| CCCOC(=O)C1=C(C)NC(=O)NC1c1ccc(Br)s1 (centres unmarked) | 9.9 |
| CCOc1ccc(N2CC(C(=O)NCCCc3ccccc3)CC2=O)cc1 (centres unmarked) | -51.2 |
| CC(=O)Nc1ccc(C)c(NC(=S)Nc2ccc(F)cc2)c1 | 14.9 |
| Cc1ccc(NS(=O)(=O)c2cccc(C(=O)NCC3CCCO3)c2)cc1 (centres unmarked) | -10 |
| CC(=O)c1ccc(-c2nnc(CCC(=O)N(C)Cc3cnc4ccccn34)o2)s1 | 13.3 |
| Cc1ccc(CNC(=O)Cn2cnc3c(NC(=O)OCc4ccccc4)ncnc32)o1 | -36.4 |
| O=[N+]([O-])c1ccc2sc(SCc3nc4ccccn4c3Br)nc2c1 | 20.2 |
| O=[N+]([O-])c1nn(-c2ccc3c(c2)OCCO3)n(O)c1=NCCCO | -2.56 |
| CN(C)c1ccc(NC(=O)CN2CCc3ccccc3C2)cc1 | -6.48 |
| COc1ccc(C(C)C)cc1S(=O)(=O)Nc1ccc(Cl)cn1 | 10.7 |
| Cc1ccc(CNCCCSc2nc(C)cc(C)n2)cc1.Cl | -52.3 |
| CC(C)c1ccc(NC2CCCN(C(=O)c3cnc4ccccn4c3=O)C2)cc1 (centres unmarked) | 12 |
